Source: PubChem BioAssay (Tox21)
Where “and” joins values, the source holds several entries; their conditions need not be identical. Identical values can stand only once. The shares of active, inactive and inconclusive entries below differ from those in the screen. For part of these data: A potency beside an inconclusive call is a rough fit, not a confirmed value. Calls of active or inactive are those of the source. Unless noted, the call rests on the fitted dose curve; in most records, active means well fitted curve in the direction sought with a large enough effect in the repeat runs; inconclusive means weak or mixed curves; inactive means no such curve, though single readings can be large; an effect the other way counts as inactive or inconclusive.

Key:
[1] = biological target: Peroxisome proliferator-activated receptor delta (Homo sapiens) (UniProt Q03181); experiment: qHTS assay to identify small molecule agonists of the peroxisome proliferator-activated receptor delta (PPARd) signaling pathway (AID 743212; calls by dose curve; further: potency means the concentration at half of the fitted maximal effect; on activation: on the % scale 0 is the no-effect control and ±100 the full control effect); conditions: HEK293H PPARd-UAS-bla, beta-lactamase FRET ratio, 17 h; activation: at 62.6 µM (top of the series) unless noted
Outline: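 Tox21 library screened in GeneBLAzer PPARd UAS-bla HEK293H cells. After compound treatment at 37 C, a FRET-based beta-lactamase substrate was applied for 2 h and fluorescence recorded.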

[2] = qHTS assay to identify small molecule antagonists of the peroxisome proliferator-activated receptor delta (PPARd) signaling pathway - cell viability counter screen (AID 743213); conditions: PPARd-bla HEK293H viability, CellTiter-Glo luminescence, 17 h; viability change, negative = cytotoxic: at 62 µM (top of the series) unless noted; further: potency means the concentration at half of the fitted maximal effect; nearly all actives have a fitted effect of over 50% in size
Outline: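 Agonist-stimulated (L165041, 300 nM final) HEK293H PPARd UAS-bla cells are exposed to compounds for 17 h at 37 C, and ATP-based luminescence (CellTiter-Glo) from the same wells reports cytotoxicity.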

[3] = biological target: Peroxisome proliferator-activated receptor delta (Homo sapiens) (UniProt Q03181); experiment: qHTS assay to identify small molecule antagonists of the peroxisome proliferator-activated receptor delta (PPARd) signaling pathway (AID 743215; active means well fitted inhibition curve with a large enough effect in the signal ratio in the repeat runs, not every such curve was filed as active; inconclusive means weak or mixed curves, or effect the other way; inactive means no such curve, though single readings can be large or run the other way; the % refers to the signal ratio; further: potency means the concentration at half of the fitted maximal effect); conditions: HEK293H PPARd-UAS-bla, beta-lactamase FRET ratio, antagonist, 17 h; ratio activity, negative = inhibition: at 62 µM (top of the series) unless noted
Outline: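 Agonist L165041 (300 nM final) added with compound to PPARd-bla HEK293H UAS-bla reporter cells; 17 h incubation at 37 C. Read-out: LiveBLAzer FRET substrate, 2 h at room temperature, fluorescence intensity.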

[4] = biological target: Bile acid receptor (Homo sapiens) (UniProt Q96RI1); experiment: qHTS assay to identify small molecule antagonists of the farnesoid-X-receptor (FXR) signaling pathway (AID 743217; active means well fitted inhibition curve with a large enough effect in the signal ratio in the repeat runs, not every such curve was filed as active; inconclusive means weak or mixed curves, or effect the other way; inactive means no such curve, though single readings can be large or run the other way; the % refers to the signal ratio; further: potency means the concentration at half of the fitted maximal effect); conditions: HEK293T FXR-UAS-bla, beta-lactamase ratio, CDCA-stimulated, 16 h; activity change, negative = inhibition: at 62.6 µM (top of the series) unless noted
Outline: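 Antagonist mode: chenodeoxycholic acid at 50 uM final stimulates a UAS-driven beta-lactamase reporter in HEK 293T FXR-bla cells during 16 h, 37C compound exposure. Read-out is FRET substrate fluorescence after 2 h at room temperature.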

[5] = qHTS assay to identify small molecule agonists of the farnesoid-X-receptor (FXR) signaling pathway - cell viability counter screen (AID 743218); conditions: FXR-bla HEK293T viability, CellTiter-Glo luminescence, 16 h; viability change, negative = cytotoxic: at 62.6 µM (top of the series) unless noted; further: potency means the concentration at half of the fitted maximal effect; nearly all actives have a fitted effect of over 45% in size
Outline: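 Viability counter screen in the same wells: CellTiter-Glo luminescence, 30 min room-temperature incubation, measured after the beta-lactamase read. Cells were GeneBLAzer FXR-UAS-bla HEK 293T, compound-treated 16 h at 37C.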

[6] = biological target: Vitamin D3 receptor (Homo sapiens) (UniProt P11473); experiment: qHTS assay to identify small molecule agonists of the vitamin D receptor (VDR) signaling pathway (AID 743222; calls by dose curve; further: on the % scale 0 is the no-effect control and ±100 the full control effect); conditions: HEK293T VDR-UAS-bla, beta-lactamase FRET ratio, 16 h; activation: at 63.5 µM (top of the series) unless noted
Outline: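 Agonist mode, beta-lactamase reporter: fluorescence from LiveBLAzer B/G FRET substrate (2 h, room temperature) read after 16 h compound treatment at 37 C of VDR-bla cells, which were pre-incubated 4 h after seeding.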

[7] = qHTS assay to identify small molecule antagonists of the vitamin D receptor (VDR) signaling pathway - cell viability counter screen (AID 743225); conditions: VDR-bla HEK293T viability, CellTiter-Glo luminescence, 16 h; viability change, negative = cytotoxic: at 61 µM (top of the series) unless noted; further: nearly all actives have a fitted effect of over 50% in size; further: potency means the concentration at half of the fitted maximal effect; on viability change, negative = cytotoxic: on the % scale 0 is the no-effect control and ±100 the full control effect
Outline: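 VDR-bla HEK 293T cells, 4 h pre-incubation at 37C, then compound plus 1-alpha,25-dihydroxyvitamin D3 (3 nM final) for 16 h. After the beta-lactamase FRET read, CellTiter-Glo was added to the same wells; luminescence after 30 min at room temperature.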

[8] = qHTS assay to identify small molecule antagonists of the retinoid-related orphan receptor gamma (ROR-gamma) signaling pathway - cell viability counter screen (AID 1159520); further: nearly all actives have a fitted effect of over 50% in size; further: potency means the concentration at half of the fitted maximal effect
Outline: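 Tet-on ROR gamma CHO cells were given compounds for 2 hr, then doxycycline hyclate at 1 uM final, and incubated 16 hr at 37 C. Viability was measured as ATP content by CellTiter-Glo luminescence.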

[9] = biological target: Nuclear receptor ROR-gamma (Homo sapiens) (UniProt P51449); experiment: qHTS assay to identify small molecule antagonists of the retinoid-related orphan receptor gamma (ROR-gamma) signaling pathway (AID 1159521; further: nearly all actives have a fitted effect of over 50% in size; further: potency means the concentration at half of the fitted maximal effect)
Outline: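 Tet-on RORγ CHO cells carrying a ROR response element–luciferase reporter were pretreated with compounds for 2 h, then induced with 1 uM (final) doxycycline hyclate for 16 h at 37 C. Antagonism was read as decreased ONE-Glo luminescence.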

[10] = qHTS assay to identify small molecule agonists of the AP-1 signaling pathway (AID 1159526; calls by dose curve; further: potency means the concentration at half of the fitted maximal effect); conditions: ME-180 (cervical carcinoma) AP-1-bla reporter, beta-lactamase FRET ratio, 5 h; activation: at 76.8 µM (top of the series) unless noted
[11] = biological target: Retinoic acid receptor RXR-alpha (Homo sapiens) (UniProt P19793); experiment: qHTS assay to identify small molecule agonists of the RXR signaling pathway (AID 1159527; calls by dose curve; further: nearly all actives have a fitted effect of over 35% in size; further: potency means the concentration at half of the fitted maximal effect; on activation: on the % scale 0 is the no-effect control and ±100 the full control effect); conditions: HEK293T RXRa-UAS-bla, beta-lactamase ratio, 16 h
Outline: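 GeneBLAzer RXR-alpha-UAS-bla HEK 293T cells in medium with 2% charcoal-stripped FBS, pre-incubated 5 hr at 37 C, then exposed to compounds 16 hr. Beta-lactamase reporter read by FRET substrate, 2 hr room temperature, 460/530 nm emission.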

[12] = qHTS assay to identify small molecule agonists of the endoplasmic reticulum stress response signaling pathway - cell viability counter screen (AID 1159517; calls by dose curve)
Outline: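 In parallel with the ESRE reporter read, cytotoxicity was scored by CellTiter-Glo luminescence (30 min, room temperature) on HeLa ESRE-bla cells dosed for 5 hr.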

[13] = biological target: Vitamin D3 receptor (Homo sapiens) (UniProt P11473); experiment: qHTS assay to identify small molecule antagonists of the vitamin D receptor (VDR) signaling pathway (AID 743223; active means well fitted inhibition curve with a large enough effect in the signal ratio in the repeat runs, not every such curve was filed as active; inconclusive means weak or mixed curves, or effect the other way; inactive means no such curve, though single readings can be large or run the other way; the % refers to the signal ratio; further: potency means the concentration at half of the fitted maximal effect); conditions: VDR-UAS-bla HEK293T, beta-lactamase FRET ratio, 16 h; activity change, negative = inhibition: at 61 µM (top of the series) unless noted
Outline: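 VDR-bla cells were plated, incubated 4 h at 37C, then given compound and 1alpha,25-dihydroxyvitamin D3 (3 nM final). After 16 h at 37C, LiveBLAzer B/G FRET substrate was added for 2 h at room temperature and fluorescence read.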

[14] = qHTS assay to identify small molecule agonists of the AP-1 signaling pathway - cell viability counter screen (AID 1159525; calls by dose curve; further: potency means the concentration at half of the fitted maximal effect; nearly all actives have a fitted effect of over 55% in size)
Outline: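 Same-well cytotoxicity counter screen of the Tox21 10K library in ME-180 cells. The readout is ATP-dependent luminescence after 5 h compound treatment. Data are normalised to DMSO and tetra n-octyl ammonium bromide controls.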

[15] = qHTS assay to identify small molecule agonists of the RXR signaling pathway - cell viability counter screen (AID 1159529)
Outline: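 RXR-alpha-UAS-bla HEK 293T cells in medium with 2% charcoal-stripped FBS were preincubated 5 hr, then exposed to compounds for 16 hr at 37 C. Viability was read as CellTiter-Glo luminescence after 30 min at room temperature.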

[16] = qHTS assay to identify small molecule antagonists of the retinoid acid receptor (RAR) signaling pathway - cell viability counter screen (AID 1159551); further: potency means the concentration at half of the fitted maximal effect; nearly all actives have a fitted effect of over 35% in size
Outline: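 Cytotoxicity counter screen: ATP content quantified by CellTiter-Glo luminescence in C3RL4 cells treated 6 hr at 37 C with compound and retinol (1 uM final). Cells plated at 1,000/well and cultured overnight before dosing.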

[17] = activation: at 76.8 µM (top of the series) unless noted
Tags describe the fitted curve by direction and shape or compound fluorescence and quenching.

Chain of UniProt Q03181 (Q03181 whole entry, looked up): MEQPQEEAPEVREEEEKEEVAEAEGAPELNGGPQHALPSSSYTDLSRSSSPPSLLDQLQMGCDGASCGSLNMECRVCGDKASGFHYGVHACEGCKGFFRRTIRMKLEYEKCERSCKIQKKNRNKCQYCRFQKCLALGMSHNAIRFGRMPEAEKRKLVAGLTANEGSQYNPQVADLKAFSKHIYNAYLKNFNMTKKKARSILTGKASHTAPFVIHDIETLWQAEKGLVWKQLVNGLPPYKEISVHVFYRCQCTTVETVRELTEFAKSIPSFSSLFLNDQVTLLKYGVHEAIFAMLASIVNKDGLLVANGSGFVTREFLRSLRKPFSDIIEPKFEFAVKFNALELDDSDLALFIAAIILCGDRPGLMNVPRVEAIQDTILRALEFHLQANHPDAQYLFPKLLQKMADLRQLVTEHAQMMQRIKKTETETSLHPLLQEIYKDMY
Chain of UniProt P11473 (P11473 whole entry, looked up): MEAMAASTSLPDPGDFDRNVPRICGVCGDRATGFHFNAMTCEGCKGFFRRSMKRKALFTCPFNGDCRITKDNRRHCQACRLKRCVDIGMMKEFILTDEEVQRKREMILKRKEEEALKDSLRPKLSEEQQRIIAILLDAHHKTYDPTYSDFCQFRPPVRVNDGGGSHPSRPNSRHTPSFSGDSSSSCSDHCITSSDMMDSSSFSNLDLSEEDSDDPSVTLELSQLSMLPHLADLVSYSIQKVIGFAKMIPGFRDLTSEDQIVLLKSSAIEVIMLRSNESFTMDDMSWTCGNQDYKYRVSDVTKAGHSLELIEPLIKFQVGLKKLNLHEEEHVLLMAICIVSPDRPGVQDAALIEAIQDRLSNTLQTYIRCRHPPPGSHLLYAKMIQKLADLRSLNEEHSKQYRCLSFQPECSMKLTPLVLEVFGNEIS
Chain of UniProt P19793 (P19793 whole entry, looked up): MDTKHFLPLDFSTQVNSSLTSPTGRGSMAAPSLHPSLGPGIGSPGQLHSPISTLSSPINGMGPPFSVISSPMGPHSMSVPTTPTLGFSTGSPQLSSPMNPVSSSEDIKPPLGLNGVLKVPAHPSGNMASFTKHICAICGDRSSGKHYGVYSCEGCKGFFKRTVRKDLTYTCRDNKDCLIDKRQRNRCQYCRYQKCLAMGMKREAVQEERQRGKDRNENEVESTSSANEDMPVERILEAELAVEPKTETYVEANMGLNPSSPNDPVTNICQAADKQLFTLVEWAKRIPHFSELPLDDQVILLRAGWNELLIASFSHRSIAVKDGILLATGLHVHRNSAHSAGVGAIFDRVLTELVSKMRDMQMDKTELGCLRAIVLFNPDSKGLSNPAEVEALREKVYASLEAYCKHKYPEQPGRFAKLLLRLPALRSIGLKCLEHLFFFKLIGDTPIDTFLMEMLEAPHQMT
Chain of UniProt Q96RI1 (Q96RI1 whole entry, looked up): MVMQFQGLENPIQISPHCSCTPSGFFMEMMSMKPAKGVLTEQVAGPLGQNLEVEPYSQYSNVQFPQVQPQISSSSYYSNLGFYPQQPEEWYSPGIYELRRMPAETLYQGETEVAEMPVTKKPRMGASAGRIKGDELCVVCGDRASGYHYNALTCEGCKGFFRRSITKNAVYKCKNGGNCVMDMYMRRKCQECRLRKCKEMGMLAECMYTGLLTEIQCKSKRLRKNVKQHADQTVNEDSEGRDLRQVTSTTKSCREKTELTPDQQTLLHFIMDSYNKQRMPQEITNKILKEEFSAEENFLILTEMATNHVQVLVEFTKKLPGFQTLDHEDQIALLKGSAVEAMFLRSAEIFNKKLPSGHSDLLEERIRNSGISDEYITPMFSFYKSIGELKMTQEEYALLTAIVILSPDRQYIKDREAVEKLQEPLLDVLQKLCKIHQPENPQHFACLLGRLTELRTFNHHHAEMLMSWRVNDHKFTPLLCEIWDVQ

## O=C(N[C@@H](c1ccccc1)[C@@H]1CCCCN1)c1cccc(C(F)(F)F)c1Cl
[1]
  Potency: inconclusive: 24.5 µM [rising, partial curve, poor fit]
[2]
  Potency: active: 27.5 µM
[3]
  Potency: inconclusive: 77.6 µM [inhibitor, partial curve, poor fit]
[4]
  Potency: inconclusive: 24.5 µM [inhibitor, partial curve]
[5]
  Potency: active: 43.6 µM
[6]
  activation: inconclusive: -30.5%
[7]
  Potency: inconclusive: 24.5 µM [cytotoxic, full curve]
[8]
  Potency: inactive
[9]
  Potency: inconclusive: 68.6 µM [inhibitor, partial curve, poor fit]
[10]
  Potency: inconclusive: 19.5 µM [activator, full curve, poor fit]
[11]; [17]
  Potency: inconclusive: 27.5 µM [rising, partial curve]

## CCC/C=C/C=O
[8]
  Potency: inactive
[9]
  Potency: inconclusive: 27.3 µM [inhibitor, single point]

## O=C(OCCOCCO)c1ccccc1Nc1cccc(C(F)(F)F)c1
[1]
  Potency: inactive
[5]
  Potency: inconclusive: 11.9 µM [cytotoxic, single point]
[8]
  Potency: inconclusive: 23.7 µM [cytotoxic, partial curve, poor fit]
[9]
  Potency: inconclusive: 29.8 µM [inhibitor]
[11]; [17]
  activation: inconclusive: -26.1% [at 35.3 µM]

## c1cnccn1
[7]
  Potency: inactive
[12]
  Potency: inconclusive: 160 nM [cytotoxic, single point]

## CCCCCCOC(=O)C(C)C
[1]
  Potency: inactive
[13]
  Potency: inactive
[8]
  Potency: inconclusive: 68.6 µM [cytotoxic, partial curve, poor fit]
[9]
  Potency: inactive
[11]; [17]
  activation: inconclusive: -3.47%

## Oc1cccc2c(O)cccc12
[8]
  Potency: inconclusive: 12.2 µM [cytotoxic, partial curve, poor fit]
[9]
  Potency: active: 68.6 µM
[14]
  Potency: inconclusive: 54.9 µM [cytotoxic, single point]
[10]
  Potency: inconclusive: 6.16 µM [cytotoxic, full curve]
[15]
  Potency: inconclusive: 54.9 µM [cytotoxic]

## CCCCCCCCCCCCCCCCCCOCC(O)CO (stereo unspecified)
[6]
  activation: inconclusive: 0.339%
[8]
  Potency: inactive
[9]
  Potency: inactive
[11]; [17]
  Potency: inactive

## Cn1c(=O)c2c(ncn2C)n(C)c1=O
[2]
  Potency: inconclusive: 2.48 µM [cytotoxic, full curve, poor fit]
[7]
  Potency: inconclusive: 0.496 µM [cytotoxic, single point]
[8]
  Potency: inconclusive: 69.4 µM [cytotoxic, partial curve, poor fit]
[9]
  Potency: inconclusive: 24.6 µM [inhibitor, full curve]
[11]; [17]
  activation: inconclusive: -20.9%

## CC/C=C\C/C=C\C/C=C\CCCCCCCC(=O)OC
[8]
  Potency: inconclusive: 77 µM [cytotoxic]
[9]
  Potency: inconclusive: 77 µM [inhibitor, single point]
[11]; [17]
  activation: inconclusive: -26.2%
[15]
  Potency: inconclusive: 11 µM [cytotoxic, full curve]

## O[Si](c1ccccc1)(c1ccccc1)c1ccccc1
[8]
  Potency: inconclusive: 61.1 µM [cytotoxic, partial curve, poor fit]
[9]
  Potency: active: 24.3 µM
[11]; [17]
  activation: inconclusive: -21%

## S=C([S-])NCCNC(=S)[S-].S=C([S-])NCCNC(=S)[S-].[Mn+2].[Zn+2]
[5]
  Potency: inconclusive: 0.756 µM [rising, full curve]
[13]
  Potency: inconclusive: 4.77 µM [fluorescent, full curve, poor fit]
[7]
  Potency: inactive
[8]
  Potency: inconclusive: 26.6 µM [cytotoxic, partial curve, poor fit]
[9]
  Potency: inconclusive: 5.31 µM [inhibitor, partial curve]
[10]
  Potency: inconclusive: 10.7 µM [activator]
[11]; [17]
  Potency: inconclusive: 26.8 µM [rising, partial curve, poor fit]

## Cc1c(C(=O)O)c(O)cc2c1C(=O)c1c(O)c([C@@H]3O[C@H](CO)[C@@H](O)[C@H](O)[C@H]3O)c(O)c(O)c1C2=O
[5]
  Potency: inconclusive: 0.0027 µM [rising, full curve]
[13]
  Potency: inconclusive: 54.9 µM [activator, single point]
  activity change, negative = inhibition: inconclusive: -7.44% [at 78.8 µM]
[8]
  Potency: inconclusive: 33.5 µM [cytotoxic, partial curve] and inconclusive: 24.3 µM [cytotoxic, partial curve]
[9]
  Potency: inconclusive: 29.9 µM [inhibitor, partial curve, poor fit] and inconclusive: 17.2 µM [inhibitor, full curve, poor fit]
[11]; [17]
  activation: inconclusive: 15.5% and inconclusive: 16.3%
[11]; at 35.3 µM (top of the series)
  activation: inactive: 2.18%
[16]
  Potency: inconclusive: 21.1 µM [cytotoxic, partial curve]

## CC1(C)C(=O)N(Br)C(=O)N1Cl
[13]
  Potency: inactive
[8]
  Potency: inconclusive: 68.6 µM [cytotoxic, partial curve, poor fit]
[9]
  Potency: inconclusive: 54.5 µM [inhibitor, partial curve, poor fit]
[10]
  Potency: inconclusive: 43.6 µM [falling, partial curve]
[11]; [17]
  Potency: inactive
